Test results taken from US20200325208A1 (IMMUNOWAKE, published 2020).
Like-named read-outs stand apart in the source and are kept apart here.

T1: Human VEGF121/VEGF-A protein (human VEGF 121 isoform) with 6-His tag (human, UniProt P15692-9 27-147)
T1 construct: range 27-147; Bought from Sino Biological; captured on the ELISA plate through an anti-His-tag antibody; not shown: 6-His tag
T1 sequence (looked up): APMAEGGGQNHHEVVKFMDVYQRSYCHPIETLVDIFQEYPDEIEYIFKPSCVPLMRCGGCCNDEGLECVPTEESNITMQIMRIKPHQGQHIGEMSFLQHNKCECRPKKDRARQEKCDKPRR

B1: Ang2/LC-GS6-VEGFR-IgG1 (other)
heavy: EVQLVESGGGLVQPGGSLRLSCAASGFTFSSYDIHWVRQATGKGLEWVSAIGPAGDTYYPGSVKGRFTISRENAKNSLYLQMNSLRAGDTAVYYCARGLITFGGLIAPFDYWGQGTLVTVSS[in this place human IgG1 constant region]
light: EIVLTQSPGTLSLSPGERATLSCRASQSVSSTYLAWYQQKPGQAPRLLIYGASSRATGIPDRFSGSGSGTDFTLTISRLEPEDFAVYYCQHYDNSQTFGQGTKVEIKRTVAAPSVFIFPPSDEQLKSGTASVVCLLNNFYPREAKVQWKVDNALQSGNSQESVTEQDSKDSTYSLSSTLTLSKADYEKHKVYACEVTHQGLSSPVTKSFNRGECTGGGGSGGGGSGGGGSGGGGSGGGGSGGGGSTGSDTGRPFVEMYSEIPEIIHMTEGRELVIPCRVTSPNITVTLKKFPLDTLIPDGKRIIWDSRKGFIISNATYKEIGLLTCEATVNGHLYKTNYLTHRQTNTIIDVVLSPSHGIELSVGEKLVLNCTARTELNVGIDFNWEYPSSKHQHKKLVLSPVNRDLKTQSGSEMKKFLSTLTIDGVTRSDQGLYTCAASSGLMTKKNSTFVRVHEK
notes: Nesvacumab IgG1 with Flt1d2-Flk1d3 fused to the C-terminus of the light chains through the GS6 linker; Expressed in CHO cells
B2: mPD-1/LC-GS6-VEGFR-IgG4 (other)
heavy: QVQLVQSGVEVKKPGASVKVSCKASGYTFTNYYMYWVRQAPGQGLEWMGGINPSNGGTNFNEKFKNRVTLTTDSSTTTAYMELKSLQFDDTAVYYCARRDYRFDMGFDYWGQGTTVTVSSASTKGPSVFPLAPCSRSTSESTAALGCLVKDYFPEPVTVSWNSGALTSGVHTFPAVLQSSGLYSLSSVVTVPSSSLGTKTYTCNVDHKPSNTKVDKRV[in this place human IgG4 Fc with S228P P343R (EU numbers)]
light: EIVLTQSPATLSLSPGERATLSCRASKGVSTSGYSYLHWYQQKPGQAPRLLIYLASYLESGVPARFSGSGSGTDFTLTISSLEPEDFAVYYCQHSRDLPLTFGGGTKVEIKRTVAAPSVFIFPPSDEQLKSGTASVVCLLNNFYPREAKVQWKVDNALQSGNSQESVTEQDSKDSTYSLSSTLTLSKADYEKHKVYACEVTHQGLSSPVTKSFNRGECTGGGGSGGGGSGGGGSGGGGSGGGGSGGGGSTGSDTGRPFVEMYSEIPEIIHMTEGRELVIPCRVTSPNITVTLKKFPLDTLIPDGKRIIWDSRKGFIISNATYKEIGLLTCEATVNGHLYKTNYLTHRQTNTIIDVVLSPSHGIELSVGEKLVLNCTARTELNVGIDFNWEYPSSKHQHKKLVLSPVNRDLKTQSGSEMKKFLSTLTIDGVTRSDQGLYTCAASSGLMTKKNSTFVRVHEK
notes: Pembrolizumab IgG4 with Flt1d2-Flk1d3 fused to the C-terminus of the light chains through the GS6 linker; Expressed in CHO cells
B3: IL-17A/LC-GS6-VEGFR-IgG4 (other)
heavy: QVQLVQSGAEVKKPGSSVKVSCKASGYSFTDYHIHWVRQAPGQGLEWMGVINPMYGTTDYNQRFKGRVTITADESTSTAYMELSSLRSEDTAVYYCARYDYFTGTGVYWGQGTLVTVSSASTKGPSVFPLAPCSRSTSESTAALGCLVKDYFPEPVTVSWNSGALTSGVHTFPAVLQSSGLYSLSSVVTVPSSSLGTKTYTCNVDHKPSNTKVDKRV[in this place human IgG4 Fc with S228P (EU numbers)]
light: DIVMTQTPLSLSVTPGQPASISCRSSRSLVHSRGNTYLHWYLQKPGQSPQLLIYKVSNRFIGVPDRFSGSGSGTDFTLKISRVEAEDVGVYYCSQSTHLPFTFGQGTKLEIKRTVAAPSVFIFPPSDEQLKSGTASVVCLLNNFYPREAKVQWKVDNALQSGNSQESVTEQDSKDSTYSLSSTLTLSKADYEKHKVYACEVTHQGLSSPVTKSFNRGECTGGGGSGGGGSGGGGSGGGGSGGGGSGGGGSTGSDTGRPFVEMYSEIPEIIHMTEGRELVIPCRVTSPNITVTLKKFPLDTLIPDGKRIIWDSRKGFIISNATYKEIGLLTCEATVNGHLYKTNYLTHRQTNTIIDVVLSPSHGIELSVGEKLVLNCTARTELNVGIDFNWEYPSSKHQHKKLVLSPVNRDLKTQSGSEMKKFLSTLTIDGVTRSDQGLYTCAASSGLMTKKNSTFVRVHEK
notes: Ixekizumab IgG4 with Flt1d2-Flk1d3 fused to the C-terminus of the light chains through the GS6 linker; Expressed in CHO cells; also called IL17α/LC-GS6-VEGFR

Columns and labels:
Assay in all cases: ELISA, antigen captured by anti-His antibody on plate, HRP anti-IgG Fc detection
[1] = target: T1, Human VEGF121/VEGF-A protein (human …)
[2] = target: T1, Human VEGF121/VEGF-A protein (human …); remark: listed apart in the source
Human IL-17A protein = target: T2, Human IL-17A protein (human, UniProt Q16552 24-155)
Sequence of Human IL-17A protein (Q16552 24-155 limits assumed): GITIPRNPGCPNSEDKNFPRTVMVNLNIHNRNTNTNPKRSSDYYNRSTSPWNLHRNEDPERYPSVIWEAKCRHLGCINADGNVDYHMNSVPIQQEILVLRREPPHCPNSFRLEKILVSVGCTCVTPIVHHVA
T2 construct: Purchased

Human PD-1 protein = target: T3, Human PD-1 protein (human, UniProt Q15116 fragment, limits assumed)
Sequence of Human PD-1 protein (Q15116 25-167 limits assumed): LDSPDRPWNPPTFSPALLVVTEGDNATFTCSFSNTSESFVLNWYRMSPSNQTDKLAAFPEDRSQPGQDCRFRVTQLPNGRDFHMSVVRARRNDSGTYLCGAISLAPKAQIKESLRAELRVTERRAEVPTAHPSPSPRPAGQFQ
T3 construct: Purchased

Binder	EC50 [1] [nM]	EC50 [2] [nM]	binding result (Human IL-17A protein)	binding result (Human PD-1 protein)	EC50 (Human IL-17A protein) [nM]
B1	13				
B2		26	no binding		
B3		19		no binding	2
